Test results as given in the supplement of paper PMC12217912.
The other results are listed elsewhere or left out. Sequences were assembled here from the parent chain. Inactive controls read about 0.05.

B1: TEV protease; numbered along this chain (parent)
chain: MGESLFKGPRDYNPISSSICHLTNESDGHTTSLYGIGFGPFIITNKHLFRRNNGTLVVQSLHGVFKVKDTTTLQQHLVDGRDMIIIRMPKDFPPFPQKLKFREPQREERICLVTTNFQTKSMSSMVSDTSCTFPSGDGIFWKHWIQTKDGQCGSPLVSTRDGFIVGIHSASNFTNTNNYFTSVPKNFMELLTNQEAQQWVSGWRLNADSVLWGGHKVFMVKPEEPFQPVKEATQL

Variants of: B1
Test: raw area under fraction-flipped curve 0-4 h after induction (AUC4h, not background-subtracted), DNA-recorder readout of cleavage of the substrate (dimensionless); higher = more cleavage of the substrate by the protease variant
Conditions: temperature: 34 °C; time window: 0-4 h after rhamnose induction
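Note: Bxb1 expression induced with 0.2% (w/v) L-rhamnose at OD600 near 0.5, cultures sampled hourly, flipped fraction per protease–substrate barcode pair counted by paired-end Illumina sequencing.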

## MGESLFKGPRDYNPISSSICHLTNESDGHTTSLYGIGFGPFIITNKHLFRRNNGTLVVQSLHGVFKVKDTTTLQQHLVDGRDMIIIRMPKDFPPFPQKLKFREPQREERICLVTTNFQTKSMSSMVSDTSCTFPSGDGIFWKHWIQTKDGQCGSPLVYTRDGFIVGIHSASNFTNTNNYFTSVPKNFMELLTNQEAQQWVSGWRLNADSVLWGGHKVFMVKPEEPFQPVKEATQL [S158Y]
  area with substrate ENLYFDS: 0.0561
  area with substrate ENLYFES: 0.0514
  area with substrate ENLYFFS: 0.0462
  area with substrate ENLYFGS: 0.0495
  area with substrate ENLYFHS: 0.0496
  area with substrate ENLYFIS: 0.0441
  area with substrate ENLYFMS: 0.0611
  area with substrate ENLYFNS: 0.06
  area with substrate ENLYFPS: 0.0485
  area with substrate ENLYFSS: 0.0497
  area with substrate ENLYFTS: 0.0639
  area with substrate ENLYFWS: 0.0536

## MGESLFKGPRDYNPISSSICHLTNESDGHTTSLYGIGFGPFIITNKHLFRRNNGTLVVQSLHGVFKVKDTTTLQQHLVDGRDMIIIRMPKDFPPFPQKLKFREPQREERICLVTTNFQTKSMSSMVSDTSCTFPSGDGIFWKHWIQTKDGQCGSPLVSTRDDFIVGIHSASNFTNTNNYFTSVPKNFMELLTNQEAQQWVSGWRLNADSVLWGGHKVFMVKPEEPFQPVKEATQL [G162D]
  area with substrate ENLYFDS: 0.0514
  area with substrate ENLYFFS: 0.0742
  area with substrate ENLYFGS: 0.0562
  area with substrate ENLYFHS: 0.0505
  area with substrate ENLYFIS: 0.0634
  area with substrate ENLYFKS: 0.0543
  area with substrate ENLYFMS: 0.0684
  area with substrate ENLYFNS: 0.0546
  area with substrate ENLYFPS: 0.0578
  area with substrate ENLYFRS: 0.0517
  area with substrate ENLYFSS: 0.0556
  area with substrate ENLYFTS: 0.0635
  area with substrate ENLYFWS: 0.0513
  area with substrate ENLYFYS: 0.0269

## MGESLFKGPRDYNPISSSICHLTNESDGHTTSLYGIGFGPFIITNKHLFRRNNGTLVVQSLHGVFKVKDTTTLQQHLVDGRDMIIIRMPKDFPPFPQKLKFREPQREERICLVTTNFQTKSMSSMVSDTSCTFPSGDGIFWKHWIQTKDGQCGSPLVSTRDFFIVGIHSASNFTNTNNYFTSVPKNFMELLTNQEAQQWVSGWRLNADSVLWGGHKVFMVKPEEPFQPVKEATQL [G162F]
  area with substrate ENLYFDS: 0.0513
  area with substrate ENLYFES: 0.0188
  area with substrate ENLYFFS: 0.0643
  area with substrate ENLYFHS: 0.0336
  area with substrate ENLYFIS: 0.0602
  area with substrate ENLYFKS: 0.0847
  area with substrate ENLYFLS: 0.0504
  area with substrate ENLYFMS: 0.0641
  area with substrate ENLYFNS: 0.0614
  area with substrate ENLYFPS: 0.063
  area with substrate ENLYFRS: 0.0515
  area with substrate ENLYFTS: 0.06
  area with substrate ENLYFVS: 0.0568
  area with substrate ENLYFYS: 0.0543

## MGESLFKGPRDYNPISSSICHLTNESDGHTTSLYGIGFGPFIITNKHLFRRNNGTLVVQSLHGVFKVKDTTTLQQHLVDGRDMIIIRMPKDFPPFPQKLKFREPQREERICLVTTNFQTKSMSSMVSDTSCTFPSGVGIFWKHWIQTKDGQCGSPLVSTRDGFIVGIHSASNFTNTNNYFTSVPKNFMELLTNQEAQQWVSGWRLNADSVLWGGHKVFMVKPEEPFQPVKEATQL [D137V]
  area with substrate ENLYFDS: 0.0569
  area with substrate ENLYFFS: 0.0604
  area with substrate ENLYFIS: 0.046
  area with substrate ENLYFMS: 0.0643
  area with substrate ENLYFNS: 0.0884
  area with substrate ENLYFPS: 0.0574
  area with substrate ENLYFSS: 0.115
  area with substrate ENLYFVS: 0.0504
  area with substrate ENLYFWS: 0.0554

## MGESLFKGPRDYNPISSSICHLTNESDGHTTSLYGIGFGPFIITNKHLFRRNNGTLVVQSLHGVFKVKDTTTLQQDLVDGRDMIIIRMPKDFPPFPQKLKFREPQREERICLVTTNFQTKSMSSMVSDTSCTFPSGDGIFWKHWIQTKDGQCGSPLVSTRDGFIVGIHSASNFTNTNNYFTSVPKNFMELLTNQEAQQWVSGWRLNADSVLWGGHKVFMVKPEEPFQPVKEATQL [H76D]
  area with substrate ENLYFES: 0.0611
  area with substrate ENLYFIS: 0.053
  area with substrate ENLYFKS: 0.0635
  area with substrate ENLYFLS: 0.0488
  area with substrate ENLYFMS: 0.06
  area with substrate ENLYFPS: 0.0506
  area with substrate ENLYFRS: 0.0435
  area with substrate ENLYFSS: 0.0516
  area with substrate ENLYFTS: 0.0609
  area with substrate ENLYFWS: 0.0583

## MGESLFKGPRDYNPISSSICHLTNESDGHTTSLYGIGFGPFIITNKHLFRRNNGTLVVQSLHGVFKVKDTTTLQQHLVDGRDMIIIRMPKDFPPFPQKLKFREPQREERICLVTTNFQTKSMSSMVSDTSCTFPSGDGIFWKHWIQTKDGQCGSPRVSTRDGFIVGIHSASNFTNTNNYFTSVPKNFMELLTNQEAQQWVSGWRLNADSVLWGGHKVFMVKPEEPFQPVKEATQL [L156R]
  area with substrate ENLYFDS: 0.0603
  area with substrate ENLYFES: 0.0473
  area with substrate ENLYFGS: 0.0495
  area with substrate ENLYFHS: 0.0367
  area with substrate ENLYFIS: 0.0441
  area with substrate ENLYFLS: 0.051
  area with substrate ENLYFMS: 0.0508
  area with substrate ENLYFNS: 0.056
  area with substrate ENLYFPS: 0.0738
  area with substrate ENLYFTS: 0.0495
  area with substrate ENLYFVS: 0.0518
  area with substrate ENLYFWS: 0.037
  area with substrate ENLYFYS: 0.0745

## MGESLFKGPRDYNPISSSICHLTNESDGHTTSLYGIGFGPFIITNKHLFRRNNGTLVVQSLIGVFKVKDTTTLQQHLVDGRDMIIIRMPKDFPPFPQKLKFREPQREERICLVTTNFQTKSMSSMVSDTSCTFPSGDGIFWKHWIQTKDGQCGSPLVSTRDGFIVGIHSASNFTNTNNYFTSVPKNFMELLTNQEAQQWVSGWRLNADSVLWGGHKVFMVKPEEPFQPVKEATQL [H62I]
  area with substrate ENLYFES: 0.062
  area with substrate ENLYFFS: 0.0735
  area with substrate ENLYFGS: 0.0439
  area with substrate ENLYFIS: 0.0523
  area with substrate ENLYFKS: 0.0633
  area with substrate ENLYFLS: 0.0549
  area with substrate ENLYFMS: 0.0478
  area with substrate ENLYFRS: 0.0526
  area with substrate ENLYFSS: 0.0547
  area with substrate ENLYFVS: 0.0735

## MGESLFKGPRDYNPISSSICHLTNESDGHTTSLYGIGFGPFIITNKHLFRRNNGTLVVQSLHGVFKVKDTTTLQQHLVDGRDMIIIRMPKDFPPFPQKLKFREPQREERICLVTTNFQTKSMSSMVSDTSCTFPSGDGIFWKHWIQTKDGQCGSPLVSIRDGFIVGIHSASNFTNTNNYFTSVPKNFMELLTNQEAQQWVSGWRLNADSVLWGGHKVFMVKPEEPFQPVKEATQL [T159I]
  area with substrate ENLYFDS: 0.0652
  area with substrate ENLYFES: 0.0449
  area with substrate ENLYFFS: 0.0908
  area with substrate ENLYFIS: 0.0518
  area with substrate ENLYFMS: 0.0707
  area with substrate ENLYFNS: 0.083
  area with substrate ENLYFPS: 0.0717
  area with substrate ENLYFTS: 0.0805
  area with substrate ENLYFWS: 0.0634
  area with substrate ENLYFYS: 0.0468

## MGESLFKGPRDYNPISSSICHLTNESDGHTTSLYGIGFGPFIITNKHLFRRNNGTLVVQSLHGVFKVKDTTTLQQHLVDGRDMIIIRMPKDFPPFPQKLKFREPQREERICLVTTNFQTKSMSSMVSDTSCTFPSGDGIFWKHWIQTKDGQCGSPLVSTRDGFIVGIHIASNFTNTNNYFTSVPKNFMELLTNQEAQQWVSGWRLNADSVLWGGHKVFMVKPEEPFQPVKEATQL [S169I]
  area with substrate ENLYFDS: 0.0714
  area with substrate ENLYFES: 0.0595
  area with substrate ENLYFFS: 0.0641
  area with substrate ENLYFGS: 0.055
  area with substrate ENLYFHS: 0.0615
  area with substrate ENLYFIS: 0.0527
  area with substrate ENLYFKS: 0.015
  area with substrate ENLYFLS: 0.0485
  area with substrate ENLYFMS: 0.0658
  area with substrate ENLYFNS: 0.0596
  area with substrate ENLYFPS: 0.041
  area with substrate ENLYFRS: 0.0637
  area with substrate ENLYFSS: 0.0547
  area with substrate ENLYFTS: 0.0575
  area with substrate ENLYFWS: 0.0604
  area with substrate ENLYFYS: 0.0553
